Measurements as given in the supplement of paper PMC10126150.
Values marked as one replicate rest on one cluster of the flow cell; about a third of the high ones do not repeat.

system: ATP; test: switch fluorescence ratio, 500 uM ATP over buffer (Cy3 cluster intensity, sum of 5 cycles each) (fold (ratio)); higher = stronger signal-on switching upon ATP binding; sequences stand for … in TCGTCGGCAGCGTCAGATGTGTATAAGAGACAGTTTTTTTTTTTTTTTTTTTTTTTTT…TC; conditions: aptamer strand: ATP DNA aptamer (quencher-CACCTGGGGGAGTATTGCGGAGGAAGG + anchor), 100 nM annealed; ATP concentration: 500 uM; one replicate
Outline: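 For every switch-domain sequence, the fluorescence ratio is the mean of per-cluster values, each being summed target-cycle Cy3 intensity over summed buffer-cycle Cy3 intensity. Clusters outside 100-1000 RFU were excluded. On a modified Illumina MiSeq flow-cell, the Cy3-labelled switching-strand clusters were annealed to 100 nM quencher-labelled ATP aptamer, imaged in selection buffer and then after 15 min with 500 uM ATP at 22 °C. Five such cycles were run, with NaOH stripping and re-annealing between them.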
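Note: ATP exposure 15 min at 22 °C before imaging.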

Sequence | switch fluorescence ratio
CATCCCCTAA | 1.17
CATCCTAGCG | 1.09
CATCCTTGTG | 1.04
CATCCTTTAC | 3.28
CATCGACGGC | 1.22
CATCGGCATG | 1.48
CATCGTGGAT | 1.03
CATCTAGAAA | 1.01
CATCTATCAA | 1.04
CATCTATCGT | 0.995
CATCTATTAA | 1.05
CATCTGCGCG | 1.04
CATCTTACAC | 1.01
CATCTTGGTG | 1.06
CATCTTGTGT | 1
CATCTTGTTC | 1
CATGAAATTT | 0.989
CATGAGAAAG | 1.02
CATGAGAGCG | 0.978
CATGATTCAT | 1.04
CATGCACAGT | 1.05
CATGCTACTA | 1.06
CATGGACTAC | 1.06
CATGGATCTT | 1.01
CATGGCCCAA | 1.01

Sequence | switch fluorescence ratio
CATGGCGTTG | 0.988
CATGGGCT | 1.01
CATGGGCTGT | 1.01
CATGGGTCTG | 0.99
CATGGTCCGG | 0.993
CATGGTCTGC | 0.964
CATGTCCACG | 1.01
CATGTGACGA | 1.01
CATGTGGTCG | 0.989
CATGTTCAGG | 1
CATGTTCATT | 0.979
CATGTTTGCG | 0.959
CATTAAGAGA | 0.966
CATTAAGTAA | 1.02
CATTAAGTCC | 0.988
CATTACAACG | 1.03
CATTAGGGTA | 0.977
CATTAGTCGG | 0.992
CATTAGTGTG | 0.996
CATTATAAGG | 0.996
CATTATCTTC | 0.987
CATTATGAAT | 0.993
CATTCAAGTC | 0.974
CATTCCAAGA | 1.1
CATTCGAGCT | 0.969

Sequence | switch fluorescence ratio
CATTCGTCTA | 1.09
CATTCTGATA | 1.01
CATTCTTCCT | 1.34
CATTGACCGT | 0.99
CATTGAGTAT | 1.12
CATTGATTGT | 0.976
CATTGCAAAG | 1.05
CATTGGACCG | 1.09
CATTGGATAG | 1.01
CATTGGCGGA | 1.06
CATTGGCTGC | 1.01
CATTGTGTAA | 1.06
CATTGTGTGG | 1
CATTTAAGCT | 0.998
CATTTACCTG | 1.01
CATTTAGTCA | 1.03
CATTTATACA | 1.02
CATTTATGGC | 1.06
CATTTCCGTG | 1.02
CATTTCTTGC | 0.999
CATTTGAAAG | 1.02
CATTTGTACG | 1.04
CATTTGTGAA | 0.946
CATTTGTTTG | 0.969
CATTTTCCGA | 1.01

Sequence | switch fluorescence ratio
CATTTTGCTT | 0.999
CCAAAAACGC | 1.09
CCAAAAACTG | 1.37
CCAAAACGCC | 1.06
CCAACATACC | 1.34
CCAACGAATA | 2.29
CCAACGGACG | 1.11
CCAACGGCTG | 1.01
CCAACGTACC | 1.75
CCAAGAGTGT | 1.02
CCAAGATTCC | 1.23
CCAAGGAATG | 1.03
CCAAGGTAGC | 1.1
CCAAGTAGTT | 0.984
CCAATCCACG | 1.06
CCAATGGCTA | 1.13
CCAATGGTAT | 1.01
CCAATTAGT | 0.983
CCACAATGAA | 1.17
CCACACAACT | 1.15
CCACACATCT | 1.04
CCACACGAAG | 1.07
CCACACTCGT | 1.03
CCACAGACCG | 1.18
CCACATCGGC | 1.06

Sequence | switch fluorescence ratio
CCACATGCGG | 0.99
CCACATTACC | 1.52
CCACCAGATA | 1.14
CCACCAGTGG | 1.68
CCACCTTCG | 1.73
CCACGAAGCT | 1.05
CCACGATTTT | 0.968
CCACGCCGCT | 1.15
CCACGGGCTA | 1.15
CCACGGGGGA | 1.08
CCACGGTGTT | 1.11
CCACGTTTAC | 2.21
CCACTAAATA | 1.55
CCACTAGCGT | 1.04
CCACTATAGC | 1.23
CCACTCCTGG | 1.07
CCAGACACGC | 1.09
CCAGACCCCA | 1.05
CCAGAGACGA | 1.15
CCAGATATGC | 1.15
CCAGATTATA | 1.01
CCAGCAGCTC | 2.84
CCAGCAGTCA | 1.13
CCAGCCCACA | 1.01
CCAGCGGGGG | 0.989

Sequence | switch fluorescence ratio
CCAGCTGTCG | 1.06
CCAGCTTGTA | 1.03
CCAGGATACA | 1.01
CCAGGGATGT | 1.1
CCAGGGCG | 1.02
CCAGGGGAAA | 1.02
CCAGGGGTG | 1.2
CCAGGTCCGA | 1.11
CCAGTACGTT | 1.04
CCAGTAGGTG | 1.67
CCAGTATGAT | 1.01
CCAGTGACAG | 1.1
CCAGTGCTTG | 1.04
CCAGTGGTCT | 0.973
CCAGTTAAT | 1
CCAGTTAT | 1.01
CCAGTTCGTT | 1.01
CCATAAGAGA | 1.04
CCATAATCAT | 0.987
CCATAATTCT | 1
CCATACAATT | 0.997
CCATACCGGC | 1.2
CCATACCGGT | 1.01
CCATACTAGC | 1.06
CCATAGGTCG | 0.923

Sequence | switch fluorescence ratio
CCATAGTCGA | 1.26
CCATATGAGA | 1.06
CCATATTAAA | 0.994
CCATATTCTA | 1.02
CCATCGGGGT | 1.14
CCATCGGTAG | 0.975
CCATGAACAA | 1.01
CCATGATGGG | 0.994
CCATGCAACG | 1.08
CCATGCTCTA | 1.04
CCATGTCGGG | 0.968
CCATGTGCTA | 1.11
CCATGTGGGT | 1.03
CCATTAAAAA | 0.947
CCATTCGGAC | 1.02
CCATTGACCA | 1.1
CCATTTTAGA | 1.01
CCCAAAGGAC | 1.2
CCCAACACCT | 1.27
CCCAACGAAT | 1.01
CCCAAGTA | 1.02
CCCAAGTAAA | 1.01
CCCAATAGGA | 1.16
CCCACGTAT | 1.33
CCCACTGGGC | 1.05

Sequence | switch fluorescence ratio
CCCACTTAAC | 1.09
CCCACTTTGG | 1.12
CCCAGACGAT | 1.08
CCCAGCGACA | 1.5
CCCAGCTTCA | 1.14
CCCAGGAGCT | 1.36
CCCAGGCCGC | 1.22
CCCAGGTCTA | 1.8
CCCAGTGGGC | 1.08
CCCATATCGC | 1.09
CCCATCGGGA | 1.01
CCCATGAGGG | 0.989
CCCATGCTTC | 1.15
CCCATGGGCC | 0.951
CCCATTCACA | 1.04
CCCATTTACC | 1.1
CCCATTTATT | 0.944
CCCATTTCAT | 1.01
CCCATTTTCG | 1.01
CCCCACAAGG | 1.65
CCCCAGACCG | 1.17
CCCCAGCATG | 2.35
CCCCATACTT | 1.27
CCCCATTGTC | 1.04
CCCCCAAGAA | 2.24
